Results are given in words; binding and its absence hold for the method and conditions named. In cells and extracts the contact can be indirect. Some results given as binding are weak or reduced against the parent protein; the word gives no strength.

Sequences of proteins named here, by UniProt entry; tags and fusion partners are left off. A change or cut given only in a name is not applied to a line headed by its entry.
UniProt Q9UJA3: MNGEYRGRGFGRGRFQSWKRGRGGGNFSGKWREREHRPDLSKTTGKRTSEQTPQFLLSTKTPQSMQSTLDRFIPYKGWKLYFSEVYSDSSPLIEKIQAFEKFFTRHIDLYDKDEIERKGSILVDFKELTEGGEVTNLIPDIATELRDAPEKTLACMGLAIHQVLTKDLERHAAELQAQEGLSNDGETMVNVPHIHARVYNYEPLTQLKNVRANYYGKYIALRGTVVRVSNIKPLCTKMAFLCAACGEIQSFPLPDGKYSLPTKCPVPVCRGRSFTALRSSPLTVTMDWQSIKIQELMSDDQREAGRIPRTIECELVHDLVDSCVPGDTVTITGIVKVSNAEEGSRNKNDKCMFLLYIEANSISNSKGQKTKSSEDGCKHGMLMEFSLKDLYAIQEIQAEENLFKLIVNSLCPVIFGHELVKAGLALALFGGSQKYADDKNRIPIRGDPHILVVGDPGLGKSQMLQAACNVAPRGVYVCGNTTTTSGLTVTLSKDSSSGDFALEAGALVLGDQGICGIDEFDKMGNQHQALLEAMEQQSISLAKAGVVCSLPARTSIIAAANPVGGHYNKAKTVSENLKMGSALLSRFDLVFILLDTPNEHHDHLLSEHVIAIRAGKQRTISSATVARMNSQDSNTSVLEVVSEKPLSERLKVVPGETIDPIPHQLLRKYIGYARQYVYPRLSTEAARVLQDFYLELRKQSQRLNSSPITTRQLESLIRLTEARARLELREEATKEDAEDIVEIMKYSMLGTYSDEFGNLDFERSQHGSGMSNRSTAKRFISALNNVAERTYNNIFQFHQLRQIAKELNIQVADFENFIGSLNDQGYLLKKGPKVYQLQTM
UniProt Q9CWV1: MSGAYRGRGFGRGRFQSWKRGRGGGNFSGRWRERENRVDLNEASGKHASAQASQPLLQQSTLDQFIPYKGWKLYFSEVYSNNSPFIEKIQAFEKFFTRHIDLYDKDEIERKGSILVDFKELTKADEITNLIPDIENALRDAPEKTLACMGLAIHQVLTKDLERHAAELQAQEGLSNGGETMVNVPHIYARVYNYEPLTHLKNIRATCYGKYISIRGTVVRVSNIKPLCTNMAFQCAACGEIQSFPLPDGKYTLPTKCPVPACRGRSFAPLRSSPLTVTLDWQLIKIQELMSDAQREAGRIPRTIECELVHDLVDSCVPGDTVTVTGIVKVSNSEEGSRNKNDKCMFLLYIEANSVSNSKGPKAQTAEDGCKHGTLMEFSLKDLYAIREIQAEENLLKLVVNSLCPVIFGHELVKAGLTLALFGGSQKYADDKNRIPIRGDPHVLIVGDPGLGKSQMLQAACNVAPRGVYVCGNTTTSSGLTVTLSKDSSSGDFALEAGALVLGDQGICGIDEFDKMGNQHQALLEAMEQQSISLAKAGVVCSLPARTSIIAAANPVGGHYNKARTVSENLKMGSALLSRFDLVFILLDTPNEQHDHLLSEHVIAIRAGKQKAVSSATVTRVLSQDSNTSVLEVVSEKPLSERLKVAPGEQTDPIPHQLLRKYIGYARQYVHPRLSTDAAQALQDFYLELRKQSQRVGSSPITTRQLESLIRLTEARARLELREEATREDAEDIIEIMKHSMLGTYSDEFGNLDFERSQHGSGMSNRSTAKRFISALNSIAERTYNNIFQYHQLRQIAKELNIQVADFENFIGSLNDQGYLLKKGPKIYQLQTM
UniProt Q61656: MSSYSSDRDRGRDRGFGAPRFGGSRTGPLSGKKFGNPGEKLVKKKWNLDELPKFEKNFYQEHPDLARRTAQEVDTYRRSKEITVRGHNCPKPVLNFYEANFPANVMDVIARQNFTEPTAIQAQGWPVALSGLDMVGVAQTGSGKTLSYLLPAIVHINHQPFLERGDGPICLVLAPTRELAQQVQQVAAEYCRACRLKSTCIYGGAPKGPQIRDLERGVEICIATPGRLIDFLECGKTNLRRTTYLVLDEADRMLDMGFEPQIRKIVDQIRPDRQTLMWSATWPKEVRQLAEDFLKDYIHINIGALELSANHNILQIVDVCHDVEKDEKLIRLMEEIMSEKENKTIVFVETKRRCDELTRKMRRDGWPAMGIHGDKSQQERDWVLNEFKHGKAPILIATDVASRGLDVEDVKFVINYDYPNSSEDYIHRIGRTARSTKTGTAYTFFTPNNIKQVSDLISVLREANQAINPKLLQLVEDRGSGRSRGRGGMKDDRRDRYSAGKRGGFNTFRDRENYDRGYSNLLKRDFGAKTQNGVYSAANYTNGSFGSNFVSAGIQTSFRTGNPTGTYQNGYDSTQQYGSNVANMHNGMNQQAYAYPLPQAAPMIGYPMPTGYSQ
UniProt O70133: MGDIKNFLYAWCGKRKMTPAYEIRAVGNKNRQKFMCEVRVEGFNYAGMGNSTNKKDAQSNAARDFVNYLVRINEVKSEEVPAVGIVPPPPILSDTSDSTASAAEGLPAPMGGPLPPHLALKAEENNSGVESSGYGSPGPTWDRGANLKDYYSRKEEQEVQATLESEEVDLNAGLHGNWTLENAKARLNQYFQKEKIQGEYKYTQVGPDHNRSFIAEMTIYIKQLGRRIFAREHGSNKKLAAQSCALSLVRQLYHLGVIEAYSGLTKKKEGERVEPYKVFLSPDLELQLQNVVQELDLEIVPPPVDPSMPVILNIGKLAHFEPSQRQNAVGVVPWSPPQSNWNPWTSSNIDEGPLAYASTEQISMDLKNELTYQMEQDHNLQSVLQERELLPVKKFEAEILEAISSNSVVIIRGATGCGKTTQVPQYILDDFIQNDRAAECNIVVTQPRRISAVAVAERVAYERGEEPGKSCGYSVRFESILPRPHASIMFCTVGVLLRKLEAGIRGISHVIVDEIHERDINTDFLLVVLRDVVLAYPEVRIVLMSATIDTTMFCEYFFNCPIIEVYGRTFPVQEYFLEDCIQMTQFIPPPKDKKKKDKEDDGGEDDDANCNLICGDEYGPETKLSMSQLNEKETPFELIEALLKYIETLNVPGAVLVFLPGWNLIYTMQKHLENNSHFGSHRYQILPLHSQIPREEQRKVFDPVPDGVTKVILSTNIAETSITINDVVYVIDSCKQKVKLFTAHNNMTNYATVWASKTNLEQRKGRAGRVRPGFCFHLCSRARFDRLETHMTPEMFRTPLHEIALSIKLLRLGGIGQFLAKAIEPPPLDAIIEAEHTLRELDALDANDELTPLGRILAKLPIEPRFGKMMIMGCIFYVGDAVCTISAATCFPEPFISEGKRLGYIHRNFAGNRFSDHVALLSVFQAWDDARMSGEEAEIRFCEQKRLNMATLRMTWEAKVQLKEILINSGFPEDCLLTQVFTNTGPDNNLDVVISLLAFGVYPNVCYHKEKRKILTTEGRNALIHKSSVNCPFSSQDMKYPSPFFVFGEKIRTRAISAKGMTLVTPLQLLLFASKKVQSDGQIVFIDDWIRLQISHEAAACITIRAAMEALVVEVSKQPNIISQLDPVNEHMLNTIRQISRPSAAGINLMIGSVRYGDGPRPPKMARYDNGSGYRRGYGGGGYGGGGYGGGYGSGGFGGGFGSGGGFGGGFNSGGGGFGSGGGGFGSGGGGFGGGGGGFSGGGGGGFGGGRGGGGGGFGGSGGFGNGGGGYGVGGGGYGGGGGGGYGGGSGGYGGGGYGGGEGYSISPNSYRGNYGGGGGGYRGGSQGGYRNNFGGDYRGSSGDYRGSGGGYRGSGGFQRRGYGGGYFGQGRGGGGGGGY
UniProt Q2KHI9: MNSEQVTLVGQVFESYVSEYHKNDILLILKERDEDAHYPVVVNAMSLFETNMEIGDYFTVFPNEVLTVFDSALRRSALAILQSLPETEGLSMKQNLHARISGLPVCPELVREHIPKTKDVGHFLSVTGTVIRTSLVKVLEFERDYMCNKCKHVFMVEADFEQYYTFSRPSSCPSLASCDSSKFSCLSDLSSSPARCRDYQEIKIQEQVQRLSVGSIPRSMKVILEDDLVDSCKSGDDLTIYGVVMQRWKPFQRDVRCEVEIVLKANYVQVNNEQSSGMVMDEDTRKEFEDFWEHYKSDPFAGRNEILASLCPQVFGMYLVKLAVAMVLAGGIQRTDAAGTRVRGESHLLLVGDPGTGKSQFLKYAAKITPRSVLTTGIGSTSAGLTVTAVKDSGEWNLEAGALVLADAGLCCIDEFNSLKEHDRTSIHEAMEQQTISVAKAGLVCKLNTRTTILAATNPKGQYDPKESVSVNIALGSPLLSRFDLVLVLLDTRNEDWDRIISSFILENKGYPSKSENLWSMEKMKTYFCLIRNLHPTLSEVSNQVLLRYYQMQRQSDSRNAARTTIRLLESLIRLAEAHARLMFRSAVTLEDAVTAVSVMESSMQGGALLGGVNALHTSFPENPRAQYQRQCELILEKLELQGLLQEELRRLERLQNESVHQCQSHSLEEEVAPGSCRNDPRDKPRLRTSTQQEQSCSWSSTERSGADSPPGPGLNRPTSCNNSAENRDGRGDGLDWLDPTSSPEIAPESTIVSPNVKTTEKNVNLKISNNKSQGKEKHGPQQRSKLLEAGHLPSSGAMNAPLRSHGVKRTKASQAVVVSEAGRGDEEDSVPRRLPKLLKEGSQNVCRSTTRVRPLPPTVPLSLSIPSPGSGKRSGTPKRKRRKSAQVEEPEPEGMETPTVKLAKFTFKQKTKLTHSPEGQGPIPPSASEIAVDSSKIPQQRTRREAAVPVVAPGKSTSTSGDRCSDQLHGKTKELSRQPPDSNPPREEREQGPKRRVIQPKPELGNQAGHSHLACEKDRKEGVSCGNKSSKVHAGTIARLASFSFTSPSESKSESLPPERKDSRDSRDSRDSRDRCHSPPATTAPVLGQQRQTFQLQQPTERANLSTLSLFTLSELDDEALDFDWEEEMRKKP
UniProt P17844: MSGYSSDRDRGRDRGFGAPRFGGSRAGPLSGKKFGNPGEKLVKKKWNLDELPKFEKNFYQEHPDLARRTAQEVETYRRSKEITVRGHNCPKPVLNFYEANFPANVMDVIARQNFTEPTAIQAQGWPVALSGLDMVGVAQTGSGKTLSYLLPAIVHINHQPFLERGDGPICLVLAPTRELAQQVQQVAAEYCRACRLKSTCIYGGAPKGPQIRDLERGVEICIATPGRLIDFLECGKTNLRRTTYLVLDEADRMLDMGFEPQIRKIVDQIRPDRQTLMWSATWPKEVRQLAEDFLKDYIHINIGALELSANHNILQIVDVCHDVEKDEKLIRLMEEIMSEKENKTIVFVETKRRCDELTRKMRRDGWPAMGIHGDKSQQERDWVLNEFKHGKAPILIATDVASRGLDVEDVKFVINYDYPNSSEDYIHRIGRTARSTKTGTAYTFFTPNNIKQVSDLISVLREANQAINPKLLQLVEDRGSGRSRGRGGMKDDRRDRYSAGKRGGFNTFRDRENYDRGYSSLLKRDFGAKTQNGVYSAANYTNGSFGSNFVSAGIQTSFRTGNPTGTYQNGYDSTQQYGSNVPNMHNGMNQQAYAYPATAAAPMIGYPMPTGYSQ
UniProt P17918: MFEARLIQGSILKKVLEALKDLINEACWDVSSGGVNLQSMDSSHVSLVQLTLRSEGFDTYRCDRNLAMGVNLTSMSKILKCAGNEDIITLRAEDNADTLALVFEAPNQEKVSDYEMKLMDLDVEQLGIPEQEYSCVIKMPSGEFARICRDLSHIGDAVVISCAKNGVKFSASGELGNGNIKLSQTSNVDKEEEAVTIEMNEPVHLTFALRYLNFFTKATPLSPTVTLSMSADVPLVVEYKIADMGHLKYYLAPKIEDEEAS

Data on 6 substances can be found in paper PMC11251167.

Test [1] has as its target MCM8, human, endogenous (human (endogenous in HEK293)) (UniProt Q9UJA3). The test is described as follows: co-IP; endogenous MCM8 precipitated from WT or MCM8 KO HEK293 cell lysates, western blot; IgG and KO cells as negative controls. On the technique in general: Immunoblotting shows a protein as a band on a membrane.
Test [2] deals with MCM8 (Minichromosome Maintenance 8 Homologous Recombination Repair Factor), mouse, endogenous (mouse (endogenous in P19 cells and E12.5 PGCs)) (UniProt Q9CWV1). The test can be described thus: co-IP; endogenous proteins, P19 cell lysates (Pierce IP lysis buffer, sonicated), antibody against the bait overnight at 4 °C, protein A/G beads, western blot; IgG as negative control.
Test [3] concerns the target MCM8 p.E341K (rs16991615) (human) (UniProt Q9UJA3). The test can be described thus: co-IP; MCM8 knockout HEK293 cells overexpressing MYC-DDX5 and empty vector, WT, p.E341K, p.R309* or p.S492* MCM8, western blot.
Test [4] deals with HA-MCM8, full length, wild type (human) (UniProt Q9UJA3). The description is as above.
The target of test [5] is DDX5, mouse, endogenous (mouse (endogenous in P19 cells and E12.5 PGCs)) (UniProt Q61656). The test can be described thus: co-IP; endogenous proteins, P19 cell lysates (Pierce IP lysis buffer, sonicated), antibody against the bait overnight at 4 °C, protein A/G beads, western blot; IgG as negative control.
The target of test [6] is DHX9, mouse, endogenous (mouse (endogenous in P19 cells and E12.5 PGCs)) (UniProt O70133). The description is as above.
In test [7] the target is MCM9, mouse, endogenous (mouse (endogenous in P19 cells)) (UniProt Q2KHI9). The description is as above.
The target of test [8] is MCM8 (Minichromosome Maintenance 8 Homologous Recombination Repair Factor), mouse, endogenous (mouse (endogenous in P19 cells and E12.5 PGCs)) (UniProt Q9CWV1). The test can be described thus: co-IP; endogenous MCM8 precipitated from lysates of E12.5 PGCs (STELLA-EGFP positive) isolated by FACS, western blot; IgG as negative control. A general note: Flow cytometry measures light scatter and fluorescence of single cells or particles in a stream.

With “DDX5, human, endogenous (from UniProt P17844 1-614)”, the binding entry in test [1] is given as “binds”.
Turning to “PCNA, mouse, endogenous (from UniProt P17918 1-261)”, in test [2], the binding result was “no binding”.
Consider MYC-DDX5 (from UniProt P17844 1-614), for which the binding entry in test [3] and in test [4] was “binds” each time.
As for “MCM9, mouse, endogenous (from UniProt Q2KHI9 1-1134)”, the binding result in test [2] is reported as “binds”.
As to “MCM8 (Minichromosome Maintenance 8 Homologous Recombination Repair Factor), mouse, endogenous (from UniProt Q9CWV1 1-833)”, the binding entry in test [5] and in test [6] was “binds” in each case.
Take “DHX9, mouse, endogenous (from UniProt O70133 1-1380)”: the binding entry in test [2], in test [7] and in test [8] was “binds” in each case.
